The full ranking holds about 81,000 sequences; the median of “one-hybrid fitness for binding NBS DNA” is about -0.1, and the highest 2% start at about 0.36. The list shows a part of the results.
B1: Caulobacter ParB omega fusion; a variant is named by its letters at X, in order, B8GW30 (parent)
chain: MESVVVGEPGMSEGRRGLGRGLSALLGEVDAAPAQAPGEQLGGSREAPIEILQRNPDQPRRTFREEDLEDLSNSIREKGVLQPILVRPSPDTAGEYQIVAGERAWRAAQRAGLKTVPIMVRELDDLAVLEIGIIENVQRADLNVLEEALSYKVLMEKFERTQENIAQTIGKSXSHVANXMRLLXLPDEVQSYLVSGELTAXHARAIAAAADPVALAKQIIEGGLSVRETEALARKAPNLSAGKSKGGRPPRVKDTDTQALESDLSSVLGLDVSIDHRGSTGTLTITYATLEQLDDLCNRLTRGI

Variants of: B1
Assay: one-hybrid fitness for binding NBS DNA (the Noc-binding site; scaled: cognate 1, non-cognate 0); higher = stronger binding
Conditions: with NBS DNA site
Outline: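 Bacterial one-hybrid selection in E. coli USO rpoZ- hisB- pyrF- with a HIS3 reporter carrying the site 19 bp from the promoter, screening Caulobacter ParB libraries with four specificity codons randomised (NNS). Cells grew 48 hours at 37°C on M9-minus-histidine plus 0.1 mM IPTG and 5 mM 3-AT. Plasmids before and after selection were Illumina-sequenced, three replicate libraries pooled, and variants under 10 reads dropped. Fitness is the log change in variant-to-wild-type read ratio, rescaled to cognate 1, non-cognate 0.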

Variant	one-hybrid fitness for binding NBS DNA
NCIW	≤ 0.2
YSFG	≤ 0.2
AETK	≤ 0.2
SILN	≤ 0.2
WDNM	≤ 0.2
MGVE	≤ 0.2
HLEV	≤ 0.2
YIPA	≤ 0.2
FVFG	≤ 0.2
KSMC	≤ 0.2
VPCG	≤ 0.2
FTSY	≤ 0.2
GCPI	≤ 0.2
PRNV	≤ 0.2
AHES	≤ 0.2
YYPM	≤ 0.2
YKNT	≤ 0.2
VAYR	≤ 0.2
THDQ	≤ 0.2
KFMP	≤ 0.2
IGSF	≤ 0.2
YQQC	≤ 0.2
VYYS	≤ 0.2
GKYM	≤ 0.2

Variant	one-hybrid fitness for binding NBS DNA
SILM	≤ 0.2
GVQP	≤ 0.2
WLCW	≤ 0.2
QLSV	≤ 0.2
AEAT	≤ 0.2
NLKS	≤ 0.2
RIWK	≤ 0.2
QSQS	0.36
RYIR	0.203
DIKR	0.201
QDKH	≤ 0.2
WFAG	≤ 0.2
SCLR	≤ 0.2
QMML	≤ 0.2
GTQN	≤ 0.2
PFMG	≤ 0.2
NTQG	≤ 0.2
FHSC	≤ 0.2
PRNG	≤ 0.2
LATP	≤ 0.2
VFEI	≤ 0.2
GVKT	≤ 0.2
IGDG	≤ 0.2
QNNS	0.238

Variant	one-hybrid fitness for binding NBS DNA
HCNW	≤ 0.2
AVQY	≤ 0.2
QKFV	≤ 0.2
LMSA	≤ 0.2
TAMS	≤ 0.2
ATNP	≤ 0.2
LLDM	≤ 0.2
KWNY	≤ 0.2
QRDY	0.289
QMNW	≤ 0.2
RWST	≤ 0.2
TPPW	≤ 0.2
MDDQ	≤ 0.2
MRCT	≤ 0.2
CAAN	≤ 0.2
TCDD	≤ 0.2
CRAS	≤ 0.2
QTFN	≤ 0.2
RKVE	≤ 0.2
RGDR	≤ 0.2
HYEM	≤ 0.2
LTTI	≤ 0.2
QYPA	≤ 0.2
MIWC	≤ 0.2

Variant	one-hybrid fitness for binding NBS DNA
TTNF	≤ 0.2
CRRT	0.348
HAHE	≤ 0.2
RAWG	≤ 0.2
HIYR	≤ 0.2
YPCW	≤ 0.2
PTNN	≤ 0.2
QAPL	≤ 0.2
ATFH	≤ 0.2
NIHF	≤ 0.2
SQWS	≤ 0.2
RNET	0.209
LRAT	≤ 0.2
HKRW	≤ 0.2
QQGM	0.202
SQAH	≤ 0.2
ADIF	≤ 0.2
ESVL	≤ 0.2
RAND	≤ 0.2
ATES	≤ 0.2
TYIV	≤ 0.2
AAGS	≤ 0.2
QREE	≤ 0.2
RMTR	0.446

Variant	one-hybrid fitness for binding NBS DNA
SMLL	≤ 0.2
PTLM	≤ 0.2
FNHC	≤ 0.2
RYVI	≤ 0.2
LQTN	≤ 0.2
CVFG	≤ 0.2
LSGI	≤ 0.2
FAKT	≤ 0.2
MLKA	≤ 0.2
TSNV	≤ 0.2
CLCT	≤ 0.2
RTYF	≤ 0.2
PGID	≤ 0.2
GPPG	≤ 0.2
DNHT	≤ 0.2
RDNS	≤ 0.2
SAEP	≤ 0.2
IAVT	≤ 0.2
MKPS	≤ 0.2
TMSN	≤ 0.2
TLGI	≤ 0.2
HDPK	≤ 0.2
QSNR	0.62
SCNH	≤ 0.2

Variant	one-hybrid fitness for binding NBS DNA
QINK	≤ 0.2
YYRC	≤ 0.2
TIWS	≤ 0.2
FLAD	≤ 0.2
CLFK	≤ 0.2
LYPC	≤ 0.2
PYPT	≤ 0.2
LNSI	≤ 0.2
VWPR	≤ 0.2
QCAT	0.533
NELG	≤ 0.2
RNKC	≤ 0.2
TIEG	≤ 0.2
VMVD	≤ 0.2
QLRM	0.333
WAPT	≤ 0.2
ANWM	≤ 0.2
DMAD	≤ 0.2
ARLF	≤ 0.2
RADQ	≤ 0.2
AHMT	≤ 0.2
QNPR	≤ 0.2
EAMC	≤ 0.2
DLNT	≤ 0.2

Variant	one-hybrid fitness for binding NBS DNA
YMLW	≤ 0.2
CFRK	≤ 0.2
LTGL	≤ 0.2
AGIS	≤ 0.2
QAIQ	≤ 0.2
HIET	≤ 0.2
VVRH	≤ 0.2
RQCI	≤ 0.2
ALFT	≤ 0.2
PQLG	≤ 0.2
WDTV	≤ 0.2
SAWY	≤ 0.2
TSWV	≤ 0.2
YTYV	≤ 0.2
TCPC	≤ 0.2
RIFV	≤ 0.2
CYMV	≤ 0.2
HIVT	≤ 0.2
EGSR	≤ 0.2
QCRG	0.451
ILPM	≤ 0.2
GGDG	≤ 0.2
CPSF	≤ 0.2
AFTK	≤ 0.2

Variant	one-hybrid fitness for binding NBS DNA
IHNA	≤ 0.2
NRPD	≤ 0.2
VPIC	≤ 0.2
WKCC	≤ 0.2
PTPS	≤ 0.2
DENS	≤ 0.2
LDAM	≤ 0.2
SRIV	≤ 0.2
TSWY	≤ 0.2
DMHC	≤ 0.2
KIMR	≤ 0.2
QVLS	≤ 0.2
MRMT	≤ 0.2
AMKY	≤ 0.2
VVFF	≤ 0.2
HRKH	≤ 0.2
DETS	≤ 0.2
SEPR	≤ 0.2
DRWH	≤ 0.2
LRPR	≤ 0.2
MLEM	≤ 0.2
QKME	≤ 0.2
EVPR	≤ 0.2
WKGR	≤ 0.2

Variant	one-hybrid fitness for binding NBS DNA
RIRY	0.259
DKNF	≤ 0.2
RTKR	0.866
TANN	≤ 0.2
KLFA	≤ 0.2
IPCK	≤ 0.2
TGGF	≤ 0.2
AKLG	≤ 0.2
GPDA	≤ 0.2
TLKY	≤ 0.2
RLSR	0.43
CATR	≤ 0.2
SPYN	≤ 0.2
LFTV	≤ 0.2
VVQL	≤ 0.2
DCTY	≤ 0.2
AWSR	≤ 0.2
YQDC	≤ 0.2
HPVC	≤ 0.2
RQQI	≤ 0.2
RLKD	≤ 0.2
VLCI	≤ 0.2
YMAN	≤ 0.2
GSRG	≤ 0.2

Variant	one-hybrid fitness for binding NBS DNA
TIFE	≤ 0.2
NPDV	≤ 0.2
NNFT	≤ 0.2
YSKW	≤ 0.2
HTLL	≤ 0.2
CDNI	≤ 0.2
PQTD	≤ 0.2
GHTK	≤ 0.2
KRGG	≤ 0.2
MPAP	≤ 0.2
TGVY	≤ 0.2
CNMT	≤ 0.2
IVRK	≤ 0.2
EQTL	≤ 0.2
FDSP	≤ 0.2
CVYG	≤ 0.2
EFMG	≤ 0.2
SLRT	≤ 0.2
LDNY	≤ 0.2
DCRH	≤ 0.2
IYVG	≤ 0.2
HSIT	≤ 0.2
DMER	≤ 0.2
DRLA	≤ 0.2

Variant	one-hybrid fitness for binding NBS DNA
DNQL	≤ 0.2
KVHV	≤ 0.2
SLDY	≤ 0.2
QGHT	≤ 0.2
VHLD	≤ 0.2
NWVW	≤ 0.2
QELC	≤ 0.2
SNTW	≤ 0.2
RRSF	≤ 0.2
GCLP	≤ 0.2
DRIS	≤ 0.2
PRRA	≤ 0.2
QGDL	≤ 0.2
AYWY	≤ 0.2
TGVG	≤ 0.2
DYKS	≤ 0.2
QFHR	0.288
HWNV	≤ 0.2
GYMR	≤ 0.2
CHQR	≤ 0.2
YMFT	≤ 0.2
LTMY	≤ 0.2
VVFG	≤ 0.2
QSTL	≤ 0.2

Variant	one-hybrid fitness for binding NBS DNA
YTIC	≤ 0.2
GGMV	≤ 0.2
RKSR	0.581
KHIS	≤ 0.2
KRFN	≤ 0.2
LSDE	≤ 0.2
LSSS	≤ 0.2
IGCV	≤ 0.2
SDSV	≤ 0.2
IFST	≤ 0.2
HPHE	≤ 0.2
MKAR	≤ 0.2
VTTY	≤ 0.2
QQWA	0.212
TMAN	≤ 0.2
IPES	≤ 0.2
GCEN	≤ 0.2
HTTP	≤ 0.2
FLGL	≤ 0.2
YNRY	≤ 0.2
CQAV	≤ 0.2
PPMS	≤ 0.2
DNTL	≤ 0.2
SHAI	≤ 0.2

Variant	one-hybrid fitness for binding NBS DNA
QPRR	0.365
FTNT	≤ 0.2
LAAA	≤ 0.2
KAKC	≤ 0.2
DRHF	≤ 0.2
NNRR	≤ 0.2
DQST	≤ 0.2
LQGW	≤ 0.2
RLKV	≤ 0.2
KVVT	≤ 0.2
LLCL	≤ 0.2
YVIR	≤ 0.2
HLGM	≤ 0.2
TANW	≤ 0.2
HITC	≤ 0.2
SDVM	≤ 0.2
NVNT	≤ 0.2
RLAY	≤ 0.2
